Data as given in PubChem BioAssay AID1347073 (National Center for Advancing Translational Sciences (NCATS), 2019).
Among all 45,000 compounds or so, about 200 (0.44%) were called active. Not shown: some 7% with an inconclusive outcome. The call rests on the fitted dose curve; in most records, active means well fitted activation curve with a large enough effect; inconclusive means small, poorly fitted or top-dose-only effect; inactive means no such curve, though single readings can be large or run the other way. This is one part of the list.

Assay: qHTS of TDP-43 Inhibitors: NCGC Sytravon Library Screen; further: 0% is about no effect; nearly all actives have a fitted effect of over 55% in size
Settings: yeast TDP-43 toxicity rescue, BacTiter-Glo growth, 24 h; series mostly up to 46.1 µM; growth rescue (activation): at the top concentration
Procedure, shortened: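 TDP-43-expressing yeast, pregrown in raffinose, seeded at OD600 0.02 in galactose medium with compound for 24 hr at 30 deg C. Growth read by BacTiter-Glo luminescence, so rescue of toxicity appears as activation.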

| SMILES | growth rescue (activation) |
| --- | --- |
| O=S(=O)(c1ccc(=S)[nH]c1)N1CCN(Cc2ccccc2)CC1 | inactive: 0.771% |
| CC1CCCC(C)N1C(=O)Cn1cc(C#N)c2ccccc21 (stereo not given) | inactive: -5.49% |
| Cc1ccc(CN2C(=O)C(F)(F)Oc3ccc(C)cc32)cc1 | inactive: 1.84% |
| COC(=O)Cn1c(Cc2ccccc2)nc2ccccc21 | inactive: -3.54% |
| CCN1C(=O)C(CC(=O)Nc2ccccc2)N(Cc2ccccn2)C1=S (stereo not given) | inactive: 18.1% |
| CCCCNC(=O)C1CCN(S(=O)(=O)N2CCOCC2)CC1 | inactive: 5.13% |
| O=C(COC(=O)c1cc(-c2cccs2)nn1-c1ccccc1)Nc1ccc(Cl)c([N+](=O)[O-])c1 | inactive: 16% |
| CC(C)Oc1ccc(-c2nc(NCC3CCCO3)c3ccccc3n2)cc1 (stereo not given) | inactive: 7.51% |
| COc1ccc(OCc2nnc(SCC(=O)NC3CC4CCC3C4)o2)cc1 (stereo not given) | inactive: 0.189% |
| CCCCOc1ccc([N+](=O)[O-])cc1C(=O)O | inactive: -19.3% |
| NS(=O)(=O)c1ccc(NC(=O)COC(=O)c2cnccn2)cc1 | inactive: 5.01% |
| Cc1ccc(S(=O)(=O)N2CCN(C(=O)Cn3c(=O)cnc4ccccc43)CC2)c(C)c1 | inactive: 38.5% |
| CNc1ccc2ncc(-c3ccccc3NC(C)=O)n2n1 | inactive: 0.109% |
| O=C(Nc1c(C(=O)C2CC2)oc2ccccc12)c1ccc(Cl)cc1 | inactive: -12% |
| CC(=O)Nc1ccccc1C(=O)C(=O)Nc1ccccc1 | inactive: 18% |
| CCC1CCC(C(=O)NC(C(=O)NCCCN2CCCCC2C)C(C)C)CC1 (stereo not given) | inactive: 1.18% |
| COc1ccc(CC(=O)Nc2nc(-c3ccc(F)c(F)c3)cs2)cc1 | inactive: 19.3% |
| Cn1ccnc1SCc1cccc([N+](=O)[O-])c1 | inactive: -6.73% |
| CN(CCNC(=O)CN1C(=O)CSc2ccc(S(=O)(=O)N3CCCC3)cc21)Cc1ccccc1 | inactive: -4.77% |
| COc1ccc(-c2nc3ccccn3c2/N=C/c2ccc(OC)c(OC)c2)cc1O | inactive: 7.26% |
| CCCC(=O)N1CCCC(c2nc(-c3cccc(OC)c3)no2)C1 (stereo not given) | inactive: 10.5% |
| COc1cc(NC(=S)NCc2ccco2)cc(OC)c1OC | inactive: 6.67% |
| CS(=O)(=O)N(CC(=O)NCc1ccc2c(c1)OCO2)c1cccc(Cl)c1 | inactive: 2.76% |
| Cn1c(COc2ccccc2)nc2ccccc21 | inactive: 11.4% |
| OCCN1CCN(CC(O)COc2ccc(Cl)cc2)CC1 (stereo not given) | inactive: -18.3% |
| CC1CN(S(=O)(=O)N2CCOCC2)CCN1S(=O)(=O)N1CCOCC1 (stereo not given) | inactive: -6.25% |
| Cc1ccc(NS(=O)(=O)c2ccc(Br)cc2)nc1 | inactive: -22% |

| SMILES | growth rescue (activation) |
| --- | --- |
| CC(=O)Oc1ccc(/C=C2/SC(=S)N(Cc3ccccc3)C2=O)cc1 | inactive: -8.94% |
| Cc1ccc([N+](=O)[O-])cc1N(CC(=O)NCC1CCCO1)S(C)(=O)=O (stereo not given) | inactive: -9.42% |
| NS(=O)(=O)c1ccc(CCNC(=O)CSc2nc3ccsc3c(=O)n2CCCCCC(=O)O)cc1 | inactive: -6.38% |
| COc1ccc(CCCc2nnc(SCc3nc4ccccc4c(=O)[nH]3)n2C)cc1C | inactive: -12.6% |
| COc1ccccc1NC(=O)NNC(=O)c1ccc2c(c1)NC(=O)C(C)(C)O2 | inactive: -27.2% |
| CCN(C(=O)c1ccc2c(=O)n3c(nc2c1)CCCCC3)c1cc(C)ccc1C | inactive: 6.58% |
| COc1ccc(/C=N/NC(=O)c2ccc(O)cc2O)cc1CSc1ccccn1 | inactive: 11.1% |
| Cc1ccc(C2=NNC(C(O)C(O)C(O)CO)S2)cc1 (stereo not given) | inactive: 4.23% |
| COc1ccccc1CNCC(=O)Nc1cc(S(=O)(=O)N2CCCCCC2)ccc1Cl | inactive: -4.94% |
| CC(=O)c1cc(-c2ccccc2)n(CCC(=O)NC2CCCCCC2)c1C | inactive: -13.7% |
| COc1ccccc1N1CCN(S(=O)(=O)c2c(C)sc3ncn(CC(=O)NCCN(C)C)c(=O)c23)CC1 | inactive: 5.14% |
| Cc1cccc(NC(=O)C2CCN(C(=O)c3ccco3)CC2)c1C | inactive: -11% |
| CCC(c1nnnn1Cc1ccco1)N(Cc1cc2cc(OC)ccc2[nH]c1=O)C1CCCCC1 (stereo not given) | inactive: 16.1% |
| COc1ccc(C(=O)Nc2ccc(NC(=O)c3cccc(F)c3)cn2)cc1 | inactive: -9.39% |
| CC(C)(C)NC(=O)C(c1ccccc1)N(C(=O)CNC(=O)c1cccs1)c1cccnc1 (stereo not given) | inactive: 14.2% |
| O=C(CSc1nc2c(c(=O)[nH]1)CCC2)Nc1cccc(F)c1 | inactive: 11.4% |
| CC(C)(C)C(=O)Nc1ccc(-c2nc3ccccc3c(=O)o2)cc1 | inactive: 5.55% |
| CN(C)c1nc(SCC(=O)Nc2ccc(Cl)c(Cl)c2)nc(N2CCOCC2)n1 | inactive: 21.2% |
| CCN(CC)C(=O)c1sc2nc(-c3cccs3)cc(-c3ccc(Cl)cc3)c2c1N | inactive: 38.8% |
| COc1ccc(C2C([N+](=O)[O-])=C(C)N(C)C(=O)N2C)cc1OC (stereo not given) | inactive: 1.28% |
| CN1CCN(C(=O)c2cc(C(C)(C)C)cc(C(C)(C)C)c2)CC1 | inactive: 2.78% |
| O=C(CNS(=O)(=O)c1cccc(C(F)(F)F)c1)NC1CCCCCC1 | inactive: 3.89% |
| CCC(=O)Nc1ccccc1N1CCN(c2ccc(F)cc2)CC1 | inactive: 3.61% |
| CCn1c(CC(=O)Nc2ccccc2C)nnc1SCC(=O)NC1CCCC1 | inactive: 3.21% |
| CN(C)C(C)(C)/C=C/C(O)(c1ccccc1)c1ccccc1 | inactive: 5.79% |
| COc1cccc(CNC(=O)CCC2CCCN(Cc3cc4ccccc4o3)C2)c1 (stereo not given) | inactive: 6.55% |
| O=C(Nc1ccccc1C(F)(F)F)N1CCC2(CC1)Oc1ccccc1C(=O)N2Cc1ccccc1F | inactive: 0.962% |

| SMILES | growth rescue (activation) |
| --- | --- |
| COc1ccc(-c2nnc(NC(=O)CSc3ccccc3)s2)cc1OC | inactive: -25.9% |
| Cc1ccc(CN2CCN(Cc3cccn3-c3ccc(Cl)cn3)CC2CCO)o1 (stereo not given) | inactive: 2.19% |
| Cc1ccc(S(=O)(=O)N2CCN(Cc3ccco3)CC2)c(C)c1 | inactive: 16.7% |
| COc1ccc(CN(C)C(=O)CC(c2ccccc2)c2ccccc2)cc1 | inactive: 13% |
| CCOc1cc2[nH]c(=S)n(Cc3ccc(C(=O)NCCN(CC)CC)cc3)c(=O)c2cc1OCC | inactive: 15.9% |
| OCC1(Cc2ccccc2)CCCN(Cc2cn[nH]c2-c2ccccc2)C1 (stereo not given) | inactive: -27.2% |
| CC(C)c1ccc(S(=O)(=O)N2CCN(C(=O)CN3C(=O)c4ccccc4C3=O)CC2)cc1 | inactive: 13.3% |
| COc1ccc(C(=O)CSc2n[nH]c(C)n2)cc1[N+](=O)[O-] | inactive: -4.25% |
| COc1ccc(NC(=O)Cc2c[nH]c3ccccc23)cc1S(=O)(=O)N1CCOCC1 | inactive: 26.7% |
| O=C(COC(=O)/C=C/c1cccc(F)c1)Nc1cccc(S(=O)(=O)NC2=NCCCCC2)c1 | inactive: 1.93% |
| O=C(N/N=C/c1ccc(Br)s1)c1ccco1 | inactive: 20.3% |
| O=C(N/N=C\c1ccc(CNS(=O)(=O)c2ccccc2)o1)C(=O)Nc1ccc(F)cc1 | inactive: 8.83% |
| O=[N+]([O-])c1c(Nc2ccccc2O)cc(Cl)c2nonc12 | inactive: -26.2% |
| Cc1ccc(S(=O)(=O)N2CCCCC2)cc1NC(=O)COC(=O)c1ccccc1F | inactive: 12.2% |
| Cc1cccc(NC(=O)Nc2c(C)n(C)n(-c3ccccc3)c2=O)c1 | inactive: -9.77% |
| Cc1c(NC(=O)CN2C(=O)NC(C)(c3ccc4c(c3)OCCO4)C2=O)c(=O)n(-c2ccccc2)n1C (stereo not given) | inactive: 1.39% |
| C/C(=N\NC(=O)c1cccnc1)c1nnn(-c2nonc2N)c1C | inactive: -1.04% |
| O=C(CSc1ccc(Cl)cc1)Nc1ccccc1N1CCN(C(=O)c2ccccc2)CC1 | inactive: 3.77% |
| O=c1cc(-c2ccc([N+](=O)[O-])cc2)nc2cc(-c3ccc(F)cc3)[nH]n12 | inactive: -12.1% |
| O=C(Cn1cccn1)N1CCCC(N2CCN(c3ccccc3F)CC2)C1 (stereo not given) | inactive: 7.21% |
| N/C(=N\N=C\c1ccc2c(c1)OCO2)SC1CC(=O)N(c2ccc(C(=O)O)cc2)C1=O (stereo not given) | inactive: 3.87% |
| CCc1cccc2c(C(=O)C(NCCOC)c3ccccc3)c[nH]c12 (stereo not given) | inactive: -1.01% |
| O=C(NC1CCCC1)c1cc(-c2ccccc2O)on1 | inactive: -3.95% |
| Cc1noc(C)c1COc1ccc(C(=O)NCc2cccs2)cc1 | inactive: 0.857% |
| Cc1ccccc1-n1c(C)cc(/C=C(\C#N)C(=O)NCC2CCCO2)c1C (stereo not given) | inactive: 23.6% |
| COc1ccc(OC)c(N/C=C/C(=O)c2ccccc2)c1 | inactive: -27% |
| CNS(=O)(=O)c1cc(NC(=O)c2cccc3cccnc23)ccc1C | inactive: 6.26% |

| SMILES | growth rescue (activation) |
| --- | --- |
| COc1ccc(-c2cc(CNc3nc4cc(-c5ccccc5C)sc4c(=O)n3C)on2)cc1 | inactive: 5.85% |
| Cn1c(N)c(C(=O)COC(=O)COc2ccccc2Cl)c(=O)n(C)c1=O | inactive: 14.2% |
| COc1ccc(NC(=O)CCc2nc3ccccc3[nH]2)cc1 | inactive: 12.2% |
| Clc1cccc(-c2cc3nc(NCCOc4ccccc4)ccn3n2)c1 | inactive: -13% |
| N#C/C(=C/c1ccc(O)c([N+](=O)[O-])c1)C(=O)Nc1ccccc1 | inactive: -4.73% |
| CCOc1ccccc1/C=C/C(=O)N1CCN(C(=O)c2ccco2)CC1 | inactive: 22.1% |
| O=C(CP(=O)(O)CC(=O)c1ccccc1)c1ccccc1 | inactive: -2.54% |
| COc1cc(C)c(C)cc1S(=O)(=O)NC1CC(C)(C)NC(C)(C)C1 | inactive: -13.4% |
| CCC1CCCCN1C(=O)Cn1c(=O)n(CCCCCC(=O)NCc2ccccc2Cl)c(=O)c2sccc21 (stereo not given) | inactive: 3.18% |
| Cc1ccc(S(=O)(=O)N(C)/N=C/c2ccc(N(C)C)cc2)cc1 | inactive: 12.5% |
| COc1cc(N)c(Cl)cc1C(=O)OCC(=O)c1cccs1 | inactive: 2.02% |
| O=S(c1ccc2ccccc2c1)c1cnns1 (stereo not given) | inactive: 27.5% |
| O=C(N/N=C/c1ccc(Cl)cc1Cl)C(=O)NC1CC1 | inactive: 12.4% |
| CC(=O)Nc1cc2nc(C)n(Cc3ccccc3)c2nc1C | inactive: 5.98% |
| O=C(c1ccccc1)c1cn[nH]c1-c1ccccc1O | inactive: 5.12% |
| O=C(c1nn2c(C(F)(F)F)cc(-c3cccs3)nc2c1Cl)N1CCCc2ccccc21 | inactive: 2.12% |
| BrC(=C\c1ccccc1)/C=N/Nc1ccc2nncn2n1 | inactive: 7.85% |
| O=C(NCC1CCCO1)C1CCN(C2CCN(C3CCCCCC3)CC2)CC1 (stereo not given) | inactive: 5.59% |
| Cc1ccc(OCC(=O)Nc2ccc(S(=O)(=O)N3CCOCC3)cc2)c(C)c1 | inactive: 14.8% |
| O=C(Nc1ccc(O)c(-c2nc3ccccc3o2)c1)C1(c2ccc([N+](=O)[O-])cc2)CCCC1 | inactive: 24.9% |
| Cc1ccn2c(Nc3ccccc3C)c(-c3cccnc3)nc2c1 | inactive: -5.55% |
| COc1ccc2cc(C(=O)C3CCCN(C(=O)CSc4nnc(C)o4)C3)ccc2c1 (stereo not given) | inactive: 23% |
| COc1ccc(NS(=O)(=O)c2ccc3c(c2)NC(=O)CO3)cc1 | inactive: -3.6% |
| O=C1c2cccc3cccc(c23)C(=O)N1CCc1ccccc1 | inactive: 3.97% |
